The whole screen tested about 310,000 compounds, of which about 2,200 (0.71%) showed an effect of 50% or more. Effects have a minus sign here. The list shows a part of the results.
molecular target: human ether-à-go-go-related gene (hERG) potassium channel (human, UniProt Q12809); assay: primary screen, population patch clamp on CHO cells stably expressing hERG
Sequence (Q12809 whole entry, looked up): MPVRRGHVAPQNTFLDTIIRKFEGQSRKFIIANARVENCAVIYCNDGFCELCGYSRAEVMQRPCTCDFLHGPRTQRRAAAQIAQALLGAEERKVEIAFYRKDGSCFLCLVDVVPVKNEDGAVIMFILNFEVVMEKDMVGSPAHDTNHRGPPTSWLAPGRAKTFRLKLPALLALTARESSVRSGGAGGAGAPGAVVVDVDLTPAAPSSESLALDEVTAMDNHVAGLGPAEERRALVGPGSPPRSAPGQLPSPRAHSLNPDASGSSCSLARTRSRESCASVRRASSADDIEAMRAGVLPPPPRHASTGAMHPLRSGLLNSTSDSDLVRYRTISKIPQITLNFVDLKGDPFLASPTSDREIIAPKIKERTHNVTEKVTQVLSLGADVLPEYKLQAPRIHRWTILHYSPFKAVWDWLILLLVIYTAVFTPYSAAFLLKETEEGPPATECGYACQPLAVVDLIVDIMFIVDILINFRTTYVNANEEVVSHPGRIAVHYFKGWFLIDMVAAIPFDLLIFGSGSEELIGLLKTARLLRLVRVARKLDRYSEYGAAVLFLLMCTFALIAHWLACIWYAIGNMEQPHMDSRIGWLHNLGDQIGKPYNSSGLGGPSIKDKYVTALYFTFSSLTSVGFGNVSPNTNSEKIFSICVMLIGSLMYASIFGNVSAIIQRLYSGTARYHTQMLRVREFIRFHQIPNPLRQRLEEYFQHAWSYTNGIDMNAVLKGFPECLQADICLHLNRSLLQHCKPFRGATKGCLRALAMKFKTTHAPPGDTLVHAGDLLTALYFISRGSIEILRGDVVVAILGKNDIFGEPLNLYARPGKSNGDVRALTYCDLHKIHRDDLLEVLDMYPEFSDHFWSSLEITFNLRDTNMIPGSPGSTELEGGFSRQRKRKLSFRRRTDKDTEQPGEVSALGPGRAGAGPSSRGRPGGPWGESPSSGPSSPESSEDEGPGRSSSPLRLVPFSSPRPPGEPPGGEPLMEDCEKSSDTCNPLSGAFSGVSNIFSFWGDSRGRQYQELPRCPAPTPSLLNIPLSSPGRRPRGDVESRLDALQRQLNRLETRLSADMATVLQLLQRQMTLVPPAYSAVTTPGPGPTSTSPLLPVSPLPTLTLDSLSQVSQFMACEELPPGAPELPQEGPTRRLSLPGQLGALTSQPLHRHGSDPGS

Structure (SMILES)	hERG current change (%, negative = inhibition) at 1uM [%]
COc1ccc(/C=N/n2cnnc2)cc1COc1ccccn1	-5.84
Cl.O=S(=O)(c1ccc2ccccc2c1)N(CC(O)CN1CCOCC1)c1ccccc1 (centres unmarked)	-21.2
CC1CCN(CCCNC(=O)CCCNC(=O)Cn2cnc3sc4c(c3c2=O)CCCC4)CC1	3.67
COc1ccc(NC(=O)c2cc(C)nc3ccccc23)c(OC)c1	7.39
Cc1n[nH]c(=S)n1-c1ccccc1	14.5
C/C(=N\Nc1ccc([N+](=O)[O-])cc1)c1cc2ccccc2o1	10.5
COc1cc(=O)[nH]c(SCC(=O)Nc2nc3c(s2)CCCC3)n1	11.5
CCN(CC)CC(=O)Nc1c(Br)ccc2c1OCO2.Cl	16
CN(C)CCC#CC(O)(c1ccccc1)c1ccccc1	11.9
O=C(O)c1ccc(N=Nc2c(O)[nH]c3ccccc23)cc1	13.4
CC(=O)Nc1ccc(S(=O)(=O)N2CCC(NC(=O)C(Cc3cccn3C)NC(C)=O)CC2)cc1 (centres unmarked)	6.73
CCOc1cc(CNc2ccc(O)cc2)cc(Br)c1OCc1ccccc1F	13.6
CN1CCN(S(=O)(=O)c2cccc(C(=O)Nc3nccs3)c2)CC1	12.4
CCOC(=O)c1nc(C)nc(Sc2n[nH]c(-c3ccccc3)n2)c1C	0.522
CCOC(=O)c1sc(NC(=O)CSc2n[nH]c(C)n2)nc1C	15.6
NC(=O)CC(NC(=O)c1ccccc1)c1ccc(N2CCC(Br)CC2)c([N+](=O)[O-])c1 (centres unmarked)	5.81
CC(=O)N1N=C2/C(=C/c3ccccc3)CCCC2C1c1ccccc1 (centres unmarked)	5.48
Cc1nc(C(=O)NNC(=O)Nc2ccc(Cl)cc2)cs1	5.79
COc1ccc(-c2csc(N(Cc3ccccc3)C(=O)COc3ccc(Cl)cc3)n2)cc1	2.58

Structure (SMILES)	hERG current change (%, negative = inhibition) at 1uM [%]
CC(=O)Nc1nonc1-c1nc2ccccc2n1CC1CC1	0.848
CC1CCN(CCC(=O)Nc2ccccc2)CC1	5.54
O=C(O)C1CC1(c1ccccc1)c1ccccc1 (centres unmarked)	13.6
Cc1ccc(C(=O)NCC(=O)NCC(=O)OCC(=O)c2ccc(F)cc2)cc1	6.21
CC(Sc1nc2ccccc2c(=O)n1C)C(=O)N(C)C1CCCCC1 (centres unmarked)	-10.3
CCc1n[nH]c(=S)n1N=C1CCC(C)CC1 (centres unmarked)	9.49
COc1cc(/C=C/c2nnc3c4ccccc4ncn23)cc(OC)c1OC	11.8
O=C1CCCN1CCCNc1nc2c(S(=O)(=O)c3ccc(Br)cc3)nnn2c2ccccc12	17.5
Cc1ccc(S(=O)(=O)N2CCOCC2)cc1C(=O)NCc1cccnc1	15.1
O=c1cc(NCc2ccccc2)c2ccccc2o1	-4.32
O=c1c2c3c(sc2nc2n1CCCC2)CCCC3	8.98
COc1ccc(C(C)NCCC(c2ccc(OC(C)C)cc2)c2ccccc2OC)cc1 (centres unmarked)	5.45
CC(C)N=c1cc2n(-c3ccc(Cl)cc3)c3ccccc3nc-2cc1Nc1ccc(Cl)cc1	21.4
Cc1ccc(-c2c(C)n([O-])c3c([n+]2=O)CCCC3)cc1	14.6
Cc1ccc(C(=O)NCC2CCCO2)cc1[N+](=O)[O-] (centres unmarked)	8.55
CCN(CC)CCCN(Cc1cc2cc(OC)c(OC)cc2[nH]c1=O)C(=O)Nc1ccccc1	8.53
O=C(NC(=S)Nc1ncc(Br)cc1Br)c1ccccc1	15.1
O=C(c1cccn2c(=O)c3ccccc3nc12)N1CCC2(CC1)OCCO2	17.4
CCCCNC(=O)c1cc(-c2ccc(OC)cc2)on1	-5.44

Structure (SMILES)	hERG current change (%, negative = inhibition) at 1uM [%]
CC(=O)NC1=NC(=O)/C(=C/c2cn(C(C)=O)nc2-c2ccccc2)S1	4.68
COc1ccccc1NC(=O)c1ccc2c(O)c(S(=O)(=O)c3ccccc3)c(=O)[nH]c2c1	10.6
Cc1cccc([C@@H]2[C@@H]3C(=O)N(Cc4ccccc4)C(=O)[C@@H]3[C@]3(C)C(=O)N(c4ccc(C(F)(F)F)cc4)C(=O)N23)c1	9.23
CCCCn1cc2c(c1-c1cccc(C)c1)c(=O)n(C)c(=O)n2C	7.03
CCN(C(=O)CO/N=C/c1ccc(OC)cc1OC)c1c(N)n(Cc2ccccc2)c(=O)[nH]c1=O	4.92
Cc1ccc2nc3c(c(Nc4ccc5c(c4)OCCO5)c2c1)CCC3.Cl	-5.67
O=C(COc1ccc(S(=O)(=O)NC2CCCCC2)cc1)NC1CC1	7.81
CCO[C@H]1OC(C(N)=O)=C[C@@H](C(C)(C)C)[C@@H]1CCCO	16.9
CCc1ncc(CN2CCCC(C(=O)Nc3ccc(-c4cscn4)cc3)C2)cn1 (centres unmarked)	7.12
CCN1CCN(Cc2c(O)c(Cl)cc3c(C)cc(=O)oc23)CC1	-7.05
Cc1ccc(CNC(=S)NC2CCCCC2)cc1	9.07
CC1CC(C)CN(S(=O)(=O)c2ccc(NC(=S)NC(=O)c3ccccc3)cc2)C1 (centres unmarked)	2.58
COC(=O)N/N=C/c1cn(CCOc2ccc(OC)cc2)c2ccccc12	17.1
COc1ccccc1N(Cc1ccccc1)S(=O)(=O)c1cccc(C(=O)Nc2cc(C)ccn2)c1	19.1
CCOC(=O)C1CCN(c2cc3c(cc2NC(=O)c2ccc(OC)c(OC)c2)n(C)c(=O)n3C)CC1	17.4
Cc1cccnc1NC(=O)c1ccccc1NC(=O)C(C)(C)C	9.13
CCOc1ccc(NC(=O)c2c(NC(=O)CN3CCCC3)sc3c2CCC3)cc1	13.6
O=C(NC(=S)Nc1ccccc1)C1CCCCC1	6.36

— article PMC4336329 (PLoS ONE, 2015)
